Hit rate of the full screen: of about 340,000 compounds, about 12,000 (3.5%) were called active. The inconclusive results got no clear call from the source; some entries with a clear call stand among them for comparison. Calls follow the shape of the dose curve; as a rule, active = well fitted inhibition curve with a large enough effect; inconclusive = small, poorly fitted or top-dose-only effect, or another doubt; inactive = no such curve, though single readings can be large or run the other way. No potency is given beside an inconclusive call; the fits are too rough.
Test: qHTS Assay for Inhibitors of Hepatitis C Virus (HCV)
Details: Huh7.5.1 HCVcc-Cre (HCVcc is cell-culture hepatitis C virus) infection, luciferase reporter, 44 h; series mostly up to 41.8 µM
How it was run: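 Reporter virus HCVcc-Cre (~0.5 moi) infects cells exposed to compound; seeding density 1,000 cells/well with 4 h settling beforehand. Luminescence, 15 sec read, taken 44 h post-infection following a 15 min RT substrate incubation.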
With C/C(=N\NC(=O)c1cccc2ccccc12)c1ccccn1 the Potency was active: 5.01 µM. For O=C(c1ccc(-c2nc3ccccc3s2)s1)N1CCOCC1, the Potency was inconclusive [inhibitor, single point]. For CN(c1ccccc1C(=O)O)S(=O)(=O)c1ccc2c3c(cccc13)C(=O)N2, the Potency was “inactive”. For CC(Cl)(Cl)/C(=N/P(=S)(N1CCOCC1)N1CCOCC1)N1CCOCC1, the Potency was “inactive”. For O=C(CSc1ccc(-c2cccc([N+](=O)[O-])c2)nn1)N1CCCCCC1, the Potency was inconclusive [inhibitor, partial curve]. In the case of Cc1ccc([N+](=O)[O-])cc1NC(=O)C1CCCC1, the Potency was inconclusive [inhibitor, single point]. In the case of COC(=O)c1ccccc1NC(=O)c1ccc(NS(C)(=O)=O)cc1, the Potency was active: 11.2 µM. In the case of CCS(=O)(=O)N1Cc2ccccc2CC1C(=O)OCC(=O)N(C(C)C)C(C)C (stereo not drawn), the Potency was “inactive”. For O=C(CNC(=O)c1ccc(Cl)cc1)OCc1nc2ccccc2s1, the Potency was “inactive”. For O=S(=O)(Nc1ccncc1)c1cc(Cl)c(Cl)cc1Cl, the Potency was “inactive”. In the case of CC(Sc1nc2ccccc2c(=O)n1CCCN1CCOCC1)C(=O)N1CCc2ccccc21 (stereo not drawn), the Potency was “inactive”. With Cc1ccc(S(=O)(=O)NCC(=O)N/N=C/c2ccc(Cl)cc2Cl)cc1 the Potency was “inactive”. For CCCCC(=O)Nc1cccc(-c2cn3ccsc3n2)c1, the Potency was “inactive”. For CSC(=S)NN=C(C)c1cccc(C)n1, the Potency was active: 3.98 µM. With O=C(Nc1nc(-c2ccccn2)cs1)c1ccccc1-n1cnnn1 the Potency was inconclusive [inhibitor, full curve]. In the case of COc1ccccc1NS(=O)(=O)c1ccc2oc(SCC(C)=O)nc2c1, the Potency was “inactive”. For O=C(CSc1nc(-c2ccco2)cc(C(F)(F)F)n1)NCCCN1CCOCC1, the Potency was “inactive”. With COc1ccc(C(C)=O)cc1CN1C(=O)NC2(CCCCCCC2)C1=O the Potency was inconclusive [inhibitor, single point]. In the case of Cc1ccc(C2=NN(S(=O)(=O)c3ccccc3)C(c3ccco3)C2)cc1 (stereo not drawn), the Potency was active: 12.6 µM. In the case of Cc1cccc(NC(=O)/C(C#N)=C/c2cn(CC(=O)NCc3ccco3)c3ccccc23)c1, the Potency was inconclusive [inhibitor, full curve, poor fit]. For CC(O)CNc1nc2c(c(=O)n(C)c(=O)n2C)n1Cc1cccc(Br)c1 (stereo not drawn), the Potency was active: 11.2 µM. For CC(C(=O)OCC(=O)c1ccc(Br)cc1)N1C(=O)C2C3CCC(C3)C2C1=O (stereo not drawn), the Potency was “inactive”. In the case of CCCN(CCC)CCNC(=O)C1CCN(Cc2nc(-c3ccc(Cl)cc3)oc2C)CC1, the Potency was active: 0.794 µM. In the case of COc1cc(C(=O)Nc2ccc(C(=O)c3cccs3)cc2)cc(OC)c1OC, the Potency was inconclusive [inhibitor, single point]. With Cc1onc(-c2ccccc2)c1C(=O)Nc1ccc(S(=O)(=O)N2CCCCC2)cc1 the Potency was inconclusive [inhibitor, partial curve]. In the case of Cc1cc(N2C(=O)C(O)=C(C(=O)c3cc4ccccc4o3)C2c2cccc(Br)c2)no1 (stereo not drawn), the Potency was “inactive”. In the case of Cc1nc(/N=C(\N)NC(=O)c2ccccc2)nc2ccccc12, the Potency was inconclusive [inhibitor, single point]. With CC(=O)c1ccc(OCC(O)CN2CCN(S(=O)(=O)c3c(C)c(C)cc(C)c3C)CC2)cc1 (stereo not drawn) the Potency was active: 12.6 µM. With Cc1ccc(Cn2c(SCC(C)C)nc3c2c(=O)[nH]c(=O)n3C)cc1 the Potency was “inactive”. In the case of Cc1nn(C)c(C)c1/C=C1/SC(=S)NC1=O, the Potency was inconclusive [inhibitor, single point]. With CCCCn1nc(C(=O)Nc2cccc(C(=O)NC3CC3)c2)c2ccccc2c1=O the Potency was inconclusive [inhibitor, partial curve]. With COc1ccccc1N=C1NC(=O)/C(=C/c2ccc(N(C)C)cc2)S1 the Potency was inconclusive [inhibitor, partial curve]. In the case of CCN(CC)CCNC(=O)c1ccc(NC(=O)c2cccc(S(=O)(=O)Nc3ccc(C)cc3)c2)cc1, the Potency was “inactive”. For c1ccc(-c2cnc(CSc3nnc4ccccn34)o2)cc1, the Potency was “inactive”. With CC(C)C(=O)Nc1cccc(-c2nc3ccccc3o2)c1 the Potency was inconclusive [inhibitor, partial curve]. In the case of CS(=O)(=O)N(Cc1nc2sc3c(c2c(=O)[nH]1)CCCC3)C1CCCCC1, the Potency was inconclusive [inhibitor, single point]. With CC(=O)Oc1ccc(C(=O)Nc2ccc(S(=O)(=O)NCC3CCCO3)cc2)cc1 (stereo not drawn) the Potency was inconclusive [inhibitor, single point]. With COC(=O)c1c(C)[nH]c(C(=O)C(C)OC(=O)C2=NNC(=O)CC2)c1C (stereo not drawn) the Potency was inconclusive [inhibitor, single point]. In the case of CCOc1ccc(CCNC(=O)COC(=O)/C=C/c2ccccc2OC)cc1OCC, the Potency was inconclusive [inhibitor, single point]. With CCOc1ccccc1Nc1ccnc2cc(Cl)ccc12 the Potency was inconclusive [inhibitor, single point]. For O=C1NC(c2ccccc2)=C(c2nc3ccccc3s2)C(c2ccc(F)cc2)N1 (stereo not drawn), the Potency was inconclusive [inhibitor, single point]. In the case of O=C(NCC(c1cccnc1)N1CCN(c2ccccc2F)CC1)c1ccco1 (stereo not drawn), the Potency was inconclusive [inhibitor, partial curve]. With COc1cc(/C=N/Nc2nc(-c3ccc(S(=O)(=O)N(C)C)cc3)cs2)ccc1O the Potency was inconclusive [inhibitor, single point]. In the case of COc1ccccc1C1(CCNS(=O)(=O)c2ccc(C)cc2)CCOC(C(C)C)C1 (stereo not drawn), the Potency was inconclusive [inhibitor, single point]. With Cc1ccc(-c2cn(S(=O)(=O)c3cccc([N+](=O)[O-])c3)nc2N)cc1 the Potency was inconclusive [inhibitor, single point]. For Cc1ccc(C)c(NS(=O)(=O)c2cc(C(=O)N3CCc4ccccc4C3)ccc2Cl)c1, the Potency was inconclusive [inhibitor, single point]. With CN(C)c1cc[n+](CC(=O)c2ccc(-c3ccccc3)cc2)cc1 the Potency was inconclusive [inhibitor, partial curve, poor fit]. In the case of Cn1c(C=O)c(C#CC(C)(C)O)c2ccccc21, the Potency was inconclusive [inhibitor, partial curve]. With CCNS(=O)(=O)c1ccc(NC(=O)c2ccccc2OCC)cc1 the Potency was active: 5.62 µM. In the case of COc1cc(C(=O)OCC(=O)NC(N)=O)cc(CN2C(=O)c3ccccc3C2=O)c1OC, the Potency was “inactive”. With COc1ccccc1NS(=O)(=O)c1cccc(C(=O)NCC(c2ccco2)N2CCCC2)c1 (stereo not drawn) the Potency was inconclusive [inhibitor, partial curve]. With CCOc1ccc(-c2c(C(=O)N/N=C/c3ccoc3)nnn2-c2nonc2N)cc1 the Potency was “inactive”. With O=C1CCCc2sccc2N1 the Potency was “inactive”. In the case of COc1ccc2c(c1OC)C(=O)OC2N1C(=O)CC[C@H]1C(=O)Nc1ccc(F)cc1F (stereo partly drawn), the Potency was active: 0.562 µM. For C/C(=N/O)c1cccc(N2Cc3ccccc3C2)c1, the Potency was inconclusive [inhibitor, partial curve]. For O=C(COC(=O)C1(c2ccccc2F)CCCC1)NCc1ccc2c(c1)OCO2, the Potency was inconclusive [inhibitor, single point]. In the case of Cc1cc(N2CCN(Cc3nc(-c4ccc(F)cc4)oc3C)CC2)cc(C)n1, the Potency was inconclusive [inhibitor, partial curve]. For Cc1ccc(C(C)(C)C)c(SCC(=O)Nc2nnc(C)s2)c1, the Potency was inconclusive [inhibitor, full curve]. For COc1ccc(CCNC(=S)Nc2cccc3ccccc23)cc1, the Potency was inconclusive [inhibitor, partial curve]. For CC(C)c1ccc(NC(=O)C2CCC(CNC(=O)[C@@H]3Cc4ccccc4CN3)CC2)cc1 (stereo partly drawn), the Potency was active: 14.1 µM. For C=CCn1c(=O)c(C(=O)NCc2ccccc2)c(O)c2ccccc21, the Potency was inconclusive [inhibitor, single point]. With CCCn1c(=O)c2ccccc2n2c(SCc3nc4ccccc4s3)nnc12 the Potency was “inactive”. In the case of CN(C)c1ccc(NC(=O)CSc2nnc(-c3cccs3)n2Cc2ccco2)cc1, the Potency was “inactive”. For O=C(N/N=C/c1cc2c(cc1Cl)OCO2)c1ccccn1, the Potency was inconclusive [inhibitor, single point]. For O=C(CN1C(=O)/C(=C/c2ccc(C(F)(F)F)cc2)Sc2ccccc21)NCCCN1CCOCC1, the Potency was active: 11.2 µM. In the case of Cc1cc(=O)oc2c3c(cc(OCC(=O)NC4CC4)c12)OC(C)(C)CC3, the Potency was inconclusive [inhibitor, full curve, poor fit]. In the case of O=C(Nc1ccc(-c2nc3ccccc3s2)cc1)c1cc(-n2cnnc2)ccc1Cl, the Potency was active: 3.98 µM. In the case of COCCn1c(SCC(=O)Nc2cc(Cl)ccc2OC)nc2c(c1=O)SC(C)C2 (stereo not drawn), the Potency was inconclusive [inhibitor, single point]. In the case of O=C(NCc1ccccn1)C(=O)Nc1ccccc1, the Potency was “inactive”. With COc1cccc(N2CC(NC(=O)c3ccc4ccccc4c3)CC2=O)c1 (stereo not drawn) the Potency was “inactive”. For COc1cc(C#Cc2c(-c3cncn3C)n(C)c3ccc(-c4ccc(OC)c(OC)c4)cc23)cc(OC)c1, the Potency was inconclusive [inhibitor, single point]. With CC(C)c1ccc(N2C(=O)NC(=O)/C(=C\C=C\c3ccco3)C2=O)cc1 the Potency was inconclusive [inhibitor, single point]. With S=C(NCCc1ccccc1)Nc1ccc(Nc2ccccc2)cc1 the Potency was active: 11.2 µM.
Potency is read from the fitted curve at half-maximal effect; tags tell the direction and shape of the fitted curve.
